# According to publication PMC4336329 (PLoS ONE, 2015):
# The whole screen tested about 310,000 compounds, of which about 14,000 (4.5%) showed an effect of 50% or more. The effect is printed as a negative number. The list shows a part of the results.
# Target: human ether-à-go-go-related gene (hERG) potassium channel (human, UniProt Q12809)
# Experiment: primary screen, population patch clamp on CHO cells stably expressing hERG
# 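Note: peak tail current of the secondary pulse compared with the same well before compound.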
# Sequence of human ether-à-go-go-related gene (hERG) potassium channel (Q12809 whole entry, looked up): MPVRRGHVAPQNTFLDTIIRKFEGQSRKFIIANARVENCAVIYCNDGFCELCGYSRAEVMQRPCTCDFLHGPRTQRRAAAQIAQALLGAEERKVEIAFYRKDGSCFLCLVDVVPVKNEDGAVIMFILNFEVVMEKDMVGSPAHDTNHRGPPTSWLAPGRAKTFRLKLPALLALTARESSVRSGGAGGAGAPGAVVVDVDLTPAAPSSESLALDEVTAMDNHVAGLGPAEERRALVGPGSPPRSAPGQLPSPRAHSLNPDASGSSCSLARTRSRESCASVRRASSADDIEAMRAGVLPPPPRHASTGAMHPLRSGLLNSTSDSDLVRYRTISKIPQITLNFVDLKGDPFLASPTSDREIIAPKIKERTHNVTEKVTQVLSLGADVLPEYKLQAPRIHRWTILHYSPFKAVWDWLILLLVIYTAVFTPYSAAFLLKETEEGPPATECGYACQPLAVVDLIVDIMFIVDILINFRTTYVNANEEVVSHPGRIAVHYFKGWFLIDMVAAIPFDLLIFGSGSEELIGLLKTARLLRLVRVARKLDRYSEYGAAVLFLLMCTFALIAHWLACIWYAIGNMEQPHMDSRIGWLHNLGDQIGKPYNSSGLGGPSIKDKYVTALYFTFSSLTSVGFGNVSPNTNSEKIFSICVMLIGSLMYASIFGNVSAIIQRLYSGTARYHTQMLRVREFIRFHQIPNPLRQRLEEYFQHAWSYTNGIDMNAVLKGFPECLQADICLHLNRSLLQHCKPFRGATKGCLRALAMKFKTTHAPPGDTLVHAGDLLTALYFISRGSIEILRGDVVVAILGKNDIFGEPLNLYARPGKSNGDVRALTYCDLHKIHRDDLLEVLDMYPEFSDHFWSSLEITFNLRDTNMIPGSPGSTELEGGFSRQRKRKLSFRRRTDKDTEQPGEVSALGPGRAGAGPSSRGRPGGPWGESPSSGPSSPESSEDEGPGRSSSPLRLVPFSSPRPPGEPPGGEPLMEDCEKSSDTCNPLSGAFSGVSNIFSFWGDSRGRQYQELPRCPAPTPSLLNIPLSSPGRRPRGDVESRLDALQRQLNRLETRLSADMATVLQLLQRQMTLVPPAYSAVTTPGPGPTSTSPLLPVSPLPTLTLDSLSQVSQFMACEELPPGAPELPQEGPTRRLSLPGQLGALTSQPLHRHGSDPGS
row,SMILES,"hERG current change (%, negative = inhibition) at 10uM [%]"
1,O=C(CN1C(=O)c2ccccc2S1(=O)=O)NC1CC2CCC1C2 (stereo not drawn),2
2,CC(=O)c1cn(CC(=O)NCC2CCCO2)c2ccccc12 (stereo not drawn),9.69
3,CCCCOc1ccc(N(CC(=O)NCC2CCCO2)C(=O)CCC(=O)Nc2cc(C)ccn2)cc1 (stereo not drawn),-35.3
4,CCOC(=O)Cn1nc(C)n(-c2ccc(F)cc2)c1=O,20.4
5,O=c1[nH]c(/C=C/c2ccc3c(c2)OCO3)c([N+](=O)[O-])c(=O)[nH]1,45.8
6,CCCCn1c(N)c(N(CC(C)C)C(=O)c2ccc(C)c(S(=O)(=O)N3CCCCC3)c2)c(=O)[nH]c1=O,0.167
7,CCP(=O)(c1ccccc1)C(C)(C)O (stereo not drawn),9.43
8,CCN(CC)CCCN1C(=O)C(O)=C(C(=O)c2cc3ccccc3o2)C1c1ccccn1 (stereo not drawn),10.1
9,Cc1ccnc(NC(=O)CC(c2ccccc2)c2ccccc2)n1,30.5
10,Cc1ccc(NS(=O)(=O)c2ccc(NC(=O)C3CCCO3)cc2)cc1 (stereo not drawn),-1.6
11,Cc1cc(C)cc(CC2CC(=O)N(c3nc(C)cc(C)n3)C2=O)c1 (stereo not drawn),-4.62
12,O=C(CCNS(=O)(=O)c1ccc(Cl)cc1)N1CCN(Cc2ccccc2)CC1,-47.6
13,CCn1ncc(Br)c1C(=O)Nc1nccs1,-10.8
14,COc1ccc(/C=N/n2c(C3CCCCC3)n[nH]c2=S)c(OC)c1,23.6
15,FC(F)(F)c1ccc2c(c1)NCC1CCCN21 (stereo not drawn),16.6
16,CCCOC(=O)Nc1cc(OC)ccc1[N+](=O)[O-],6.14
17,COc1cccc(C(=O)OCC(=O)c2[nH]c(C)c(C(C)=O)c2C)c1,21.2
18,CCOC(=O)N1CCN(C(=O)CCCN2C(=O)CSc3nc(C)cc(C)c32)CC1,12.1
19,Cc1csc2ncnc(NCCc3ccccn3)c12,-22.4
20,COc1cccc(CNS(=O)(=O)c2cc3c(cc2Cl)NC(=O)CO3)c1,-18.8
21,Clc1ccc(-c2nnc(SCc3nc(-c4ccccc4)no3)o2)cc1,13.6
22,O=C(COC(=O)CCCNC(=O)c1ccc(Cl)cc1)Nc1cc(Cl)ccc1Cl,23.5

row,SMILES,"hERG current change (%, negative = inhibition) at 10uM [%]"
1,CCOC(=O)c1sc(NC(=O)CSc2nnc(-c3ccco3)o2)c(C(=O)OCC)c1C,7.76
2,CCCCn1c(N)c(N(CCOC)C(=O)c2cccc(S(=O)(=O)N(C)c3ccc(C)cc3)c2)c(=O)[nH]c1=O,9.05
3,CNC(=O)c1c(NC(=O)c2ccc(S(=O)(=O)N3CCCCC3C)cc2)sc2c1CCN(C)C2 (stereo not drawn),-3.92
4,COC(=O)c1[nH]c2cccc(OC)c2c1NC(=O)CN1CCOCC1,2.83
5,CCOc1ccc2ccccc2c1CNCCN1CCOCC1.Cl,-27.7
6,CC(OC(=O)c1ccc(Cl)c(S(N)(=O)=O)c1)C(=O)NCC1CCCCC1 (stereo not drawn),-3.93
7,O=C(CN1C(=O)c2cccnc2Oc2ccc(Cl)cc21)NC1CCCC1,0.804
8,O=C(CSCc1c(Cl)cccc1Cl)Nc1ccc2c(c1)OCO2,6.72
9,CS(=O)(=O)C1=NSC2=NC(=O)/C(=C\c3ccc(OC(=O)c4ccco4)c(Br)c3)C(=N)N21,7.59
10,CC(=O)N1CCOc2ccc(S(=O)(=O)N3C(C)CCCC3C)cc21 (stereo not drawn),6.53
11,Cc1cc(-c2csc(NC(=O)c3ccc(C#N)cc3)n2)c(C)n1Cc1ccccc1,4.16
12,CCOC(=O)C(=O)N(CC)C1CCS(=O)(=O)C1 (stereo not drawn),1.75
13,O=C(COc1ccccc1)Nc1ncc2c(n1)CCCC2=O,-7.92
14,Cl.O=C(COc1ccc(Br)cc1CNCCc1ccccc1)NCc1ccccc1,-61.1
15,CCCCN(CC)CCCNC(=O)CC1Oc2ccccc2NC1=O (stereo not drawn),-22.6
16,O=C(CC1C(=O)NCCN1C(=S)Nc1ccccc1)Nc1ccc(F)cc1 (stereo not drawn),-3.33
17,CN1CCN(C(=O)NC2CCCN2S(=O)(=O)c2ccc(Cl)cc2)CC1 (stereo not drawn),0.602
18,CCSc1ccc(NC(=O)c2cccnc2)cc1,0.972
19,CCN(CC(=O)Nc1c(F)cccc1F)C(=O)CNC(=O)c1cccs1,10.1
20,Cc1c2cnn(-c3ccccc3)c(=O)c2c(C)n1CCCC(=O)NCCN1CCN(C)CC1,1.27
21,CCCS(=O)(=O)c1csc(C(=O)OC)c1N,10.1
22,CCCNC(=O)N1c2ccccc2Sc2ccccc21,10.5

row,SMILES,"hERG current change (%, negative = inhibition) at 10uM [%]"
1,CN1c2ccc([N+](=O)[O-])cc2CC2(C(=O)NC(=O)N(c3ccccc3)C2=O)C1c1ccccc1 (stereo not drawn),22.5
2,CN(Cc1cccs1)c1ncnc2sccc12,-28.8
3,CC(=O)c1c(O)c(C)c(-c2ccccc2)n(-c2ccccc2)c1=O,-3.96
4,CCOC(=O)C1=C(N)Oc2c(oc(CO)cc2=O)C1c1c(F)cccc1Cl (stereo not drawn),0.47
5,Cc1nc(C)c(C(=O)OCC(=O)NCCc2ccc(S(N)(=O)=O)cc2)s1,-0.28
6,O=C(N=C1SC2CS(=O)(=O)CC2N1c1ccc(Br)cc1F)C1CC1 (stereo not drawn),16.2
7,CN(CC(=O)Nc1cccc(F)c1)C(=O)c1ccc(N2CCCC2)c([N+](=O)[O-])c1,-46.7
8,O=C(O)c1ccc(CSc2nnc(-c3ccncc3)n2-c2ccc(Br)cc2)cc1,-0.673
9,CCCCn1c(N)c(N(CC(C)C)C(=O)c2cccc(S(=O)(=O)N3CCCCC3)c2)c(=O)[nH]c1=O,9.31
10,CC(C)Nc1nc(NC(C)C)nc(Nn2cnnc2)n1,19.2
11,O=C(N=C1SC2CS(=O)(=O)CC2N1c1ccc(Br)cc1Cl)C1CC1 (stereo not drawn),-29.6
12,O=S(=O)(c1ccc(Br)cc1)N1CCOC12CCCCC2,12.5
13,CC(C)(C)C(=O)NC1CCN(S(=O)(=O)c2ccccc2F)CC1,5.17
14,CCCCOC(=O)C1=C(C)NC(=O)NC1c1ccc([N+](=O)[O-])s1 (stereo not drawn),1.66
15,COc1cc2c(=O)n(CCC(=O)NCC3CCCO3)c(=O)n(CC(=O)Nc3ccc(C)cc3)c2cc1OC (stereo not drawn),0.242
16,O=C(C1CCCC1)N(c1ccccc1)C1C=CS(=O)(=O)C1 (stereo not drawn),-2.05
17,COc1ccc(-n2nc3c(c2NC(=O)c2ccc(N4C(=O)CCC4=O)cc2)CSC3)cc1,22
18,O=C(CSc1nnnn1-c1ccccc1)N1CCN(C(=O)c2ccco2)CC1,-49.4
19,Cc1nc(NCCC(C)C)c2nnn(Cc3ccccc3)c2n1,12.6
20,CCN1CCN(CCCNC(=O)c2csc3c2CCCCC3)CC1,-7.21
21,Cc1onc(-c2c(F)cccc2Cl)c1C(O)c1ccc(F)cc1 (stereo not drawn),9.8
22,COC(=O)C1=C(c2ccc(S(C)(=O)=O)cc2)C[C@@H]2CC[C@H]1N2C(=O)NCc1ccco1,2.75

row,SMILES,"hERG current change (%, negative = inhibition) at 10uM [%]"
1,C/C(=N\O)C(=O)Nc1ccccc1,7.85
2,COc1ccc(C(=O)COC(=O)c2c(-c3ccccc3)noc2C)c(OC)c1,26.2
3,CCOC(=O)CNC(=S)N1CCn2c(nc3ccccc32)C1,-19.4
4,CCCN(Cc1ccccc1)C(=S)Nc1cccc(C)c1C,57.5
5,COc1cc(/C=C(\C#N)c2nc3ccc(C)cc3[nH]2)c([N+](=O)[O-])cc1OC,-1.7
6,CCn1c(SCC(=O)OC)nnc1-c1c[nH]c2ccccc12,10.6
7,O=C(Nc1ccc2c(c1)OCCO2)c1cc(-c2ccccn2)nc2ccc(Br)cc12,6.13
8,Cn1c(SCC(=O)NCc2ccc3c(c2)OCO3)ncc(C(=O)Nc2ccc(F)cc2)c1=O,-15.3
9,Cc1ccc(OP(=O)(NC(C)c2ccccc2)Oc2ccc(C)cc2)cc1 (stereo not drawn),17.6
10,O=C(c1sc2cccc(Cl)c2c1Cl)N1CCN(CCc2ccccn2)CC1,-28.9
11,O=C(Nc1ccccc1)N1CCCN(c2ccc(C(F)(F)F)cc2[N+](=O)[O-])CC1,-39.9
12,O=S1(=O)c2ccccc2N=NN1Cc1cc(Cl)cc(Cl)c1,1.27
13,COc1ccc(OC)c(NC(=S)N2CCN(C/C=C/c3ccccc3)CC2)c1,-33
14,O=C(c1ccccc1F)N1C[C@H]2C[C@@H](C1)c1cccc(=O)n1C2,15.2
15,CCCS(=O)(=O)N1CCCC(C(=O)NCCN2CCC(Cc3ccccc3)CC2)C1 (stereo not drawn),-58.2
16,O=C(NCCCNC(=O)c1ccco1)c1ccc(Cl)c(Cl)c1,-26.4
17,COC(=O)C(C)NC(=O)COc1ccc2ccccc2c1 (stereo not drawn),-1.31
18,Cc1n[nH]c(=O)c2c(NC(=O)COC(=O)COc3cccc(Br)c3)oc(C)c12,-22.9
19,COc1cc(OC)cc(C(=O)NCC(=O)NC(C)c2ccccc2)c1 (stereo not drawn),20.5
20,CCN(Cc1ccccc1)C(=S)Nc1cc(C(=O)OC)ccc1C(=O)OC,17
21,COc1cc(C(=O)NCCOc2cc(C)cc(C)c2)c(Br)c(OC)c1OC,-18.4
